Data: the supplement of paper PMC4967469
Lines with a small IC50 respond at low doses; where the fit passes the top or lowest dose, that dose stands as a limit. AUC is the area under the same curve over the 256-fold range up to the top dose, as a fraction: 1 means no effect, lower means more sensitive. An inferred top dose comes from the curve model; the source does not state it.

Compound: COc1ncc(-c2ccc3nccc(-c4ccnnc4)c3c2)cc1NS(=O)(=O)c1ccc(F)cc1F [GSK2126458]
Test: Viability of human cancer cell lines after 72 h of drug (GDSC screen)
Conditions: top dose inferred
Description: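 Human cancer cell lines in 384-well plates, medium with 10% serum, drug for 72 h over a 256-fold dose range (nine 2-fold or five 4-fold steps up to the top dose). Adherent lines were fixed and stained with the nucleic acid dye Syto60, suspension lines read with resazurin; signal relative to control wells, capped at 0 and 100%. One two-parameter sigmoid per drug and line, fitted in a mixed model over all curves with the slope shared within a line.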

| Cell Line | AUC | IC50 [nM] |
| --- | --- | --- |
| H3118 (head and neck, adherent, top dose 0.128 µM) | 0.466 | 6.42 |
| H3255 (lung adenocarcinoma, adherent, top dose 0.128 µM) | 0.837 | 110 |
| H-EMC-SS (chondrosarcoma, adherent, top dose 0.128 µM) | 0.739 | 48.1 |
| HA7-RCC (kidney, adherent, top dose 0.128 µM) | 0.813 | 78.1 |
| HAL-01 (lymphoblastic leukaemia, suspension, top dose 0.128 µM) | 0.107 | 0.526 |
| HARA (lung squamous cell carcinoma, adherent, top dose 0.128 µM) | 0.501 | 8.03 |
| HC-1 (hairy cell leukaemia, suspension, top dose 0.128 µM) | 0.499 | 7.95 |
| HCC38 (breast, adherent, top dose 0.128 µM) | 0.786 | 60.1 |
| HCC70 (breast, adherent, top dose 0.128 µM) | 0.662 | 22.4 |
| HCC1143 (breast, adherent, top dose 0.128 µM) | 0.792 | 86.1 |
| HCC1187 (breast, suspension, top dose 0.128 µM) | 0.712 | 30.7 |
| HCC1395 (breast, adherent, top dose 1.024 µM) | 0.915 | > 1020 |
| HCC1419 (breast, adherent, top dose 0.128 µM) | 0.671 | 29.6 |
| HCC1428 (breast, adherent, top dose 0.128 µM) | 0.914 | > 128 |
| HCC1500 (breast, adherent, top dose 0.128 µM) | 0.76 | 46.7 |
| HCC1569 (breast, adherent, top dose 0.128 µM) | 0.502 | 8.12 |
| HCC1599 (breast, suspension, top dose 1.024 µM) | 0.318 | 18.3 |
| HCC1806 (breast, adherent, top dose 0.128 µM) | 0.846 | 82 |
| HCC1937 (breast, adherent, top dose 0.128 µM) | 0.786 | 64.5 |
| HCC1954 (breast, adherent, top dose 0.128 µM) | 0.448 | 5.65 |
| HCC2157 (breast, suspension, top dose 0.128 µM) | 0.681 | 26.3 |
| HCC2218 (breast, suspension, top dose 1.024 µM) | 0.263 | 11.1 |
| HCC2998 (large intestine, adherent, top dose 1.024 µM) | 0.72 | 263 |
| HCC-15 (lung squamous cell carcinoma, adherent, top dose 0.128 µM) | 0.886 | > 128 |
| HCC-33 (small cell lung carcinoma, adherent, top dose 0.128 µM) | 0.832 | 83.3 |
| HCC-44 (lung adenocarcinoma, adherent, top dose 0.128 µM) | 0.725 | 34.2 |
| HCC-56 (large intestine, adherent, top dose 0.128 µM) | 0.824 | 78.6 |

| Cell Line | AUC | IC50 [nM] |
| --- | --- | --- |
| HCC-78 (lung adenocarcinoma, adherent, top dose 0.128 µM) | 0.564 | 12.3 |
| HCC-827 (lung adenocarcinoma, adherent, top dose 0.128 µM) | 0.738 | 43.2 |
| HCE-4 (oesophagus, adherent, top dose 0.128 µM) | 0.984 | > 128 |
| HCT-15 (large intestine, adherent, top dose 0.128 µM) | 0.674 | 25.2 |
| HD-MY-Z (Hodgkin lymphoma, adherent, top dose 0.128 µM) | 0.707 | 30.9 |
| HDLM-2 (Hodgkin lymphoma, suspension, top dose 0.128 µM) | 0.954 | > 128 |
| HDQ-P1 (breast, adherent, top dose 0.128 µM) | 0.825 | 97.2 |
| HEC-1 (endometrium, adherent, top dose 0.128 µM) | 0.932 | > 128 |
| HEL (acute myeloid leukaemia, semi-adherent, top dose 0.128 µM) | 0.801 | 50.5 |
| HGC-27 (stomach, adherent, top dose 0.128 µM) | 0.398 | 4.39 |
| HH (T-cell leukaemia, suspension, top dose 0.128 µM) | 0.384 | 3.46 |
| HL-60 (acute myeloid leukaemia, suspension, top dose 0.128 µM) | 0.395 | 4.26 |
| HLE (liver, adherent, top dose 0.128 µM) | 0.988 | > 128 |
| HMV-II (melanoma, adherent, top dose 0.128 µM) | 0.802 | 80.3 |
| HN (head and neck, adherent, top dose 0.128 µM) | 0.944 | > 128 |
| HO-1-N-1 (head and neck, adherent, top dose 0.128 µM) | 0.93 | > 128 |
| HO-1-u-1 (head and neck, adherent, top dose 0.128 µM) | 0.886 | > 128 |
| HOP-62 (lung adenocarcinoma, adherent, top dose 0.128 µM) | 0.854 | 100 |
| HOP-92 (large cell lung carcinoma, adherent, top dose 0.128 µM) | 0.985 | > 128 |
| HOS (osteosarcoma, adherent, top dose 0.128 µM) | 0.992 | > 128 |
| HPAC (pancreas, adherent, top dose 0.128 µM) | 0.41 | 4.11 |
| HPAF-II (pancreas, adherent, top dose 0.128 µM) | 0.505 | 8.32 |
| HSC-2 (head and neck, adherent, top dose 0.128 µM) | 0.833 | 73.9 |
| HSC-3 (head and neck, adherent, top dose 0.128 µM) | 0.914 | > 128 |
| HSC-4 (head and neck, adherent, top dose 0.128 µM) | 0.746 | 52.4 |
| HSC-39 (stomach, suspension, top dose 0.128 µM) | 0.802 | 52.8 |
| HT55 (large intestine, adherent, top dose 0.128 µM) | 0.989 | > 128 |

| Cell Line | AUC | IC50 [nM] |
| --- | --- | --- |
| HT (B-cell lymphoma, suspension, top dose 0.128 µM) | 0.557 | 11.3 |
| HT-3 (cervix, adherent, top dose 0.128 µM) | 0.89 | > 128 |
| HT-29 (large intestine, adherent, top dose 0.128 µM) | 0.585 | 13.6 |
| HT-115 (large intestine, adherent, top dose 0.128 µM) | 0.969 | > 128 |
| HT-144 (melanoma, adherent, top dose 0.128 µM) | 0.974 | > 128 |
| HT-1080 (fibrosarcoma, adherent, top dose 0.128 µM) | 0.988 | > 128 |
| HT-1197 (bladder, adherent, top dose 0.128 µM) | 0.903 | > 128 |
| HT-1376 (bladder, adherent, top dose 0.128 µM) | 0.981 | > 128 |
| HTC-C3 (thyroid, adherent, top dose 0.128 µM) | 0.792 | 66.1 |
| HUTU-80 (digestive system, adherent, top dose 0.128 µM) | 0.395 | 4.35 |
| HeLa (cervix, adherent, top dose 0.128 µM) | 0.916 | > 128 |
| Hep 3B2_1-7 (liver, adherent, top dose 0.128 µM) | 0.898 | > 128 |
| Hey (ovary, adherent, top dose 0.128 µM) | 0.864 | 102 |
| Hs633T (fibrosarcoma, adherent, top dose 0.128 µM) | 0.758 | 37.1 |
| Hs683 (glioma, adherent, top dose 0.128 µM) | 0.65 | 20.9 |
| Hs746T (stomach, adherent, top dose 0.128 µM) | 0.75 | 54.9 |
| Hs766T (pancreas, adherent, top dose 0.128 µM) | 0.892 | > 128 |
| Hs939-T (melanoma, adherent, top dose 0.128 µM) | 0.926 | > 128 |
| Hs940-T (melanoma, adherent, top dose 0.128 µM) | 0.809 | 84.7 |
| Hs-445 (Hodgkin lymphoma, suspension, top dose 0.128 µM) | 0.429 | 5.21 |
| Hs-578-T (breast, adherent, top dose 0.128 µM) | 0.986 | > 128 |
| HuCCT1 (biliary tract, adherent, top dose 0.128 µM) | 0.612 | 16.9 |
| HuH-7 (liver, adherent, top dose 0.128 µM) | 0.892 | > 128 |
| HuO9 (osteosarcoma, adherent, top dose 0.128 µM) | 0.637 | 20 |
| HuO-3N1 (osteosarcoma, adherent, top dose 0.128 µM) | 0.826 | 113 |
| HuP-T3 (pancreas, adherent, top dose 0.128 µM) | 0.687 | 30.4 |
